Data reported in publication PMC4336329 (PLoS ONE, 2015).
The whole screen tested about 310,000 compounds, of which about 2,200 (0.71%) showed an effect of 50% or more. The effect is printed as a negative number. The list shows a part of the results.

These compounds were tested against human ether-à-go-go-related gene (hERG) potassium channel (human, UniProt Q12809) (assay: primary screen, population patch clamp on CHO cells stably expressing hERG).
Chain of human ether-à-go-go-related gene (hERG) potassium channel (Q12809 whole entry, looked up): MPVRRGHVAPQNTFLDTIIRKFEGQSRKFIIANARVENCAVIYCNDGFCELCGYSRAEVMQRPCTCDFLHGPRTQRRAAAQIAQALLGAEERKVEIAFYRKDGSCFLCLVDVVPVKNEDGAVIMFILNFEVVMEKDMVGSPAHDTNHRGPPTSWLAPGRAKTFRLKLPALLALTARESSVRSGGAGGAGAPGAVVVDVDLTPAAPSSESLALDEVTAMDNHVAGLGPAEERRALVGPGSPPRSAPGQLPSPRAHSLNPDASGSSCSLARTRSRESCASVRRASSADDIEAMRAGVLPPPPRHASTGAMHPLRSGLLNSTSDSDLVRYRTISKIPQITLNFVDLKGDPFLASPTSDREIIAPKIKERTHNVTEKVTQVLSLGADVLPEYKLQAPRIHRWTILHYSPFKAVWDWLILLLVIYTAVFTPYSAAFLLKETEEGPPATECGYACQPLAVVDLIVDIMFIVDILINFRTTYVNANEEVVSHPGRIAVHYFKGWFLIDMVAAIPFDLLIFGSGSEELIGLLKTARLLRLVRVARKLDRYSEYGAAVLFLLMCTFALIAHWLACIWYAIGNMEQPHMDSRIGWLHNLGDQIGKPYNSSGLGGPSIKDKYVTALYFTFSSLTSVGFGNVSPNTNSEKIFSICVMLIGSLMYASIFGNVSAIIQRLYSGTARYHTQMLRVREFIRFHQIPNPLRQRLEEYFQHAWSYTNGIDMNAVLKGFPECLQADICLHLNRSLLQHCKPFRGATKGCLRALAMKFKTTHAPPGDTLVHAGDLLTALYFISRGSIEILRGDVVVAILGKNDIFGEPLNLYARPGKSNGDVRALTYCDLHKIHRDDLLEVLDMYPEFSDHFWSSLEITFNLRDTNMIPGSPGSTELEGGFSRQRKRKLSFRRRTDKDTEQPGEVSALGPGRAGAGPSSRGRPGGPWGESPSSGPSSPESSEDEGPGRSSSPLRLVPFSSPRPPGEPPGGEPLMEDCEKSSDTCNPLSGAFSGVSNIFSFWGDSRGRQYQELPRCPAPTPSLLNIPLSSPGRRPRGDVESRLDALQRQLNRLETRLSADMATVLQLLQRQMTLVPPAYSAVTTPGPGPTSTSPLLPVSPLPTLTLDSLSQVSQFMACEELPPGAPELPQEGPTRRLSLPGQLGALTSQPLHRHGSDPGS

Compound	hERG current change (%, negative = inhibition) at 1uM
N#Cc1nc(N)nc(N(c2ccccc2)c2ccccc2)n1	-0.884%
CCOc1ccc(CC(=O)N/N=C/c2sccc2C)cc1	11.8%
CC1CC(C)CN(S(=O)(=O)c2ccc3c(c2)n(C)c(=O)c(=O)n3C)C1 (stereo not shown)	11.4%
Cc1ccnc(NC(=O)CCC(=O)N(CC(=O)NCC2CCCO2)Cc2ccc(F)cc2)c1 (stereo not shown)	3.8%
CCCCN(C)C(=O)C1CCC(=O)N(c2cc(OC)c(OC)c(OC)c2)C1c1ccc(OC)cc1 (stereo not shown)	8.58%
CCOC(=O)c1sc2nc(SC)nc(-c3ccccc3)c2c1N	11.2%
CN(C)[C@@H](CO)c1nnc([C@H](CC(=O)O)NC(=O)C2CCNCC2)o1.Cl	11.6%
Cc1cccnc1NC(=S)NC(=O)c1cccs1	-3.11%
CC(C)CC(C(=O)O)N1C(=O)C2C3CC(C2C1=O)C1C(c2ccccc2)c2sc(=O)[nH]c2SC31 (stereo not shown)	1.35%
COC(=O)c1cc(Br)ccc1OC(=O)c1cccnc1	14.1%
COc1ccc2nc(NCCCO)[nH]c2c1	10.2%
COc1ccccc1NC(=O)NCc1nc(-c2ccc(C(F)(F)F)cc2)no1	12%
CC(C)N1CCc2c(sc(NC(=O)c3cc(-c4cccs4)nc4ccccc34)c2C(N)=O)C1.Cl	9.76%
CCn1c(SCC(=O)N/N=C/c2ccccc2OCC(=O)O)nnc1-c1ccc(C)cc1	9.72%
CCOc1cc(C2C3=C(CCCC3=O)N(CCC(=O)O)C3=C2C(=O)CCC3)ccc1OS(=O)(=O)c1ccc(C)cc1	8.39%
COc1cc(/C=N/NC(=O)c2cccc([N+](=O)[O-])c2)cc(OC)c1O	-0.0577%
O=C(c1ccccc1)c1ccc(-n2cnnc2)c([N+](=O)[O-])c1	9.68%
O=C1C(SCCO)=C(SCCO)C(=O)c2ccccc21	16.2%
Cc1cccc2cc3c(nc12)SC(=NCC1CCCO1)N(Cc1ccco1)C3 (stereo not shown)	11%
O=C1N[C@@H](Cc2ccccc2)C(=O)N2[C@@H]3N(S(=O)(=O)c4ccccc4)c4ccccc4[C@]3(Br)C[C@@H]12	14.2%
O=C(O)c1cc(S(=O)(=O)NCCN2CCNC2=O)ccc1O	11.6%
CN(Cc1ccccc1)CC(O)COc1ccc(CNCc2ccc(Cl)s2)cc1 (stereo not shown)	3.39%
CCC(C)Nc1nc2c(C)cccn2c(=O)c1C=Nc1ccc(OC)cc1 (stereo not shown)	15.8%
COC(=O)COc1ccc(S(=O)(=O)NCc2ccccn2)cc1	12.8%
COc1ccc(C(CNC(=O)c2cccc(S(=O)(=O)N(C)c3ccccc3)c2)N2CCCC2)cc1 (stereo not shown)	1.81%
S=C(c1ccc(N2CCOCC2)cc1)N1CCCCC1	21.9%
CC1(C)C2CCC1(CS(=O)(=O)NCc1ccc(Cl)cc1Cl)C(=O)C2 (stereo not shown)	2.7%
COc1ccccc1CNCc1ccc(C)cc1.O=C(O)C(=O)O	10.8%

Compound	hERG current change (%, negative = inhibition) at 1uM
O=C(/C=C/c1cccs1)c1ccc(NC(=O)c2ccccc2F)cc1	-0.602%
Clc1cccc(OCc2nc(-c3ccncc3)n[nH]2)c1	8.22%
C[N+](C)(C)CCc1ccc(O)cc1.[I-]	12.3%
Cc1cc(/C=N/NC(=O)c2cccnc2)c(C)n1CC(C)C	11.3%
O=C(COC(=O)c1cc(S(=O)(=O)N2CCOCC2)cs1)c1ccccc1	3.65%
CC(C)c1ccc(NC(=S)NN2CCN(C)CC2)cc1	14%
O=C1CCc2cc(S(=O)(=O)NC(Cc3ccccc3)C(=O)NC3CCCCC3)ccc2N1 (stereo not shown)	-1.79%
COc1cccc(NC(=S)N(CCN2CCCCC2)Cc2ccco2)c1	-5.59%
COc1ccccc1OCc1ccc(C(=O)NCC2CCCO2)cc1 (stereo not shown)	8%
CC(C)CCNC(=O)c1cn(CC(C)C)c(=O)c2c1c1ccccc1n2C	13.3%
CN1CCOc2ccc(S(=O)(=O)NCCc3ccc(Cl)cc3)cc21	5.59%
CCC(=NCc1ccc2c(c1)OCO2)c1c(O)n(C)c(=O)n(C)c1=O	13.9%
Cc1cccc(C(O)(C(=O)NNC(=O)CN2CCN(C)CC2)c2cccc(C)c2)c1	6.77%
COc1cccc(/C=N/N2CCN(C3c4ccccc4-c4ccccc43)CC2)c1O	8.79%
Cc1ccc(Oc2nc3ccccc3n3cccc23)cc1	-5.8%
COC(=O)[C@@]12CCCCN1[C@H](c1ccc(SC3CCCCC3)cc1)[C@H]1C(=O)N(C)C(=O)[C@H]12.O=C(O)C(F)(F)F	12.3%
Cc1ccsc1C(=O)N1CCN(S(=O)(=O)c2cccs2)CC1	7.51%
COC(=O)c1cc(OC)c(OC)cc1NC(=O)c1ccco1	7.42%
CC(NC1CCCC1)c1ccccc1 (stereo not shown)	8.7%
CC(OC(=O)CNC(=O)c1ccc(Cl)c(Cl)c1)C(=O)N1CCOCC1 (stereo not shown)	10.3%
CCN(CC)S(=O)(=O)c1ccc2c(c1)c(=O)c(C(=O)NCCCN(C)c1ccccc1)cn2C	3.22%
Cc1nc2ccc(C(C(F)(F)F)(C(F)(F)F)C(F)(F)F)cc2[nH]1	7.08%
O=C(Cc1ccc2ccccc2c1)Nc1ccccc1Br	13.8%
COc1cc(NC(=O)c2ccc([N+](=O)[O-])o2)ccc1NC(=O)c1cccs1	-19.8%
CN(C)C(=O)CSc1cccc2cccnc12	7.68%
CCC(C)NC(=O)CCc1nc2ccccc2n1-c1ccccc1 (stereo not shown)	10.4%
CCN(c1cccc(C)c1)S(=O)(=O)c1ccc2c(c1)CCN2C(C)=O	0.688%
